From ChEMBL document CHEMBL2439986, “Hydroxyquinoline-derived compounds and analoguing of selective Mcl-1 inhibitors using a functional biomarker” (Bioorg Med Chem, 2013) come the findings set out here.

The subject of one series is SU-DHL10. Put plainly: Induction of mitochondrial membrane depolarization in human SU-DHL10 cells by fluorescence assay. Format: functional, cell-based. Summed up:
(§1)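 BH3 profiling: 2.5 × 10⁴ cells per well with 100 µM BH3 peptide (Bim, Puma, Noxa, Bad), 1 µM JC-1 and 0.005% digitonin, in duplicate wells. Percent priming was derived from AUC relative to CCCP (positive) and DMSO (negative) controls. Two independent assays in triplicate (n=6).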

For series [1], the system named is SU-DHL-6. Put plainly: Induction of mitochondrial membrane depolarization in human SU-DHL6 cells by fluorescence assay. Format: functional, cell-based. In outline:
as §1

Series [2] has as its target Bcl-2-like protein 1 (Homo sapiens) (UniProt Q07817). Particulars: 100 uM.
The test system of another series is A549. Put plainly: Antiproliferative activity against human A549 cells assessed as cell viability after 48 hrs by PrestoBlue staining-based assay. Format: functional. Particulars: A549, 48 h. Summed up: (§2)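 Cells plated at 2.5 × 10⁵ cells/mL and treated with seven 2-fold dilutions of compound (top concentration 5 µM or 20 µM), with DMSO dilutions (top 0.2%) and cells-only and media-only wells as controls. Incubated for 48 h at 37°C, then read with PrestoBlue. Media background was subtracted and viability normalized to cells-only wells (100%) to give EC₅₀.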

Series [3] relates to Bcl2-1863. Put plainly: Induction of apoptosis in mouse Bcl2-1863 cells at 0.625 to 2.5 uM after 24 hrs by DAPI staining-based fluorescence microscopy. Format: functional, cell-based. Summed up:
(§3)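 Seeded at 2 × 10⁵ cells/ml with DMSO (0.1%), navitoclax (5, 2.5, 1.25, 0.625 µM) or test compound (1000, 500, 250, 125 nM) for 24 h at 37°C. Fixed in 100% methanol on ice for 10 min and mounted with DAPI. At least 100 cells were scored as normal or apoptotic (pyknotic, fragmented) nuclei. DMSO was the negative control; navitoclax 5 µM on Bcl2-1863 was the positive control.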

Series [4] deals with Mcl1-1780. As to the kind of experiment: Induction of mitochondrial membrane depolarization in mouse Mcl1-1780 cells assessed as cytochrome c release at 20 uM after 2 hrs by DAPI staining-based fluorescence microscopy. Format: functional, cell-based. In outline: (§4)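 Cells washed in PBS and resuspended at 2 × 10⁶ cells/ml, then exposed to compound (20 µM), 0.2% DMSO, or Bim/Puma peptides (100 µM) for 2 h at room temperature. Fixed in 4% formaldehyde, blocked and permeabilised (2% FBS, 0.5% Triton X-100), and stained with anti-cytochrome c-Alexa488 for 2 h at 4°C. Mounted with DAPI; at least 100 cells scored for cytochrome c loss. DMSO set as 0%; SUDHL-6 Bim response set as 100%.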

Series [5] can be described thus: Antiproliferative activity against human SU-DHL10 cells assessed as cell viability after 48 hrs by PrestoBlue staining-based assay. Format: functional. Particulars: SU-DHL10, 48 h. Summed up:
as §2

In series [6] the test system is Bcl2-1863. As to the kind of experiment: Induction of apoptosis in mouse Bcl2-1863 cells at 0.125 to 0.5 uM after 24 hrs by DAPI staining-based fluorescence microscopy. Format: functional, cell-based. In outline: as §3
Series [7] is described as follows: Solubility of the compound in DMEM in presence of 10% FBS. Format: physicochemical. Particulars: DMEM with 10% FBS.
For a further series, the system named is A-375. Put plainly: Antiproliferative activity against human A375 cells assessed as cell viability after 48 hrs by PrestoBlue staining-based assay. The note with it: A-375, 48 h. Format: functional. In outline:
as §2

In a further series the test system is Liver. Put plainly: Half life in mouse liver microsomes. Format: ADME, Microsome. Background: Liver microsomes are vesicles of endoplasmic reticulum, rich in cytochrome P450 enzymes.
Series [8] in a line: Antiproliferative activity against mouse Bcl2-1863 cells assessed as cell viability after 48 hrs by PrestoBlue staining-based assay. Format: functional. The note with it: Bcl2-1863, 48 h. In outline: as §2
A short description of series [9]: Solubility of the compound in phosphate buffer saline at pH 7.4. Format: physicochemical.
The next series has as its system PANC-1. Put plainly: Antiproliferative activity against human PANC1 cells assessed as cell viability after 48 hrs by PrestoBlue staining-based assay. Format: functional. The note with it: PANC-1, 48 h.
A further series concerns MOLM-13. As to the kind of experiment: Antiproliferative activity against human MOLM13 cells assessed as cell viability after 48 hrs by PrestoBlue staining-based assay. The note with it: MOLM-13, 48 h. Format: functional.
In another series the target is CYP2D6 (Homo sapiens, UniProt P10635). Put plainly: Inhibition of CYP2D6 (unknown origin) at 10 uM. Format: ADME.
A further series deals with NCI-H187. As to the kind of experiment: Antiproliferative activity against human NCI-H187 cells assessed as cell viability after 48 hrs by PrestoBlue staining-based assay. Format: functional. The note with it: NCI-H187, 48 h. In outline:
as §2

Series [10] has as its system Bcl2-1863. Put plainly: Induction of mitochondrial membrane depolarization in mouse Bcl2-1863 cells assessed as cytochrome c release at 20 uM after 2 hrs by DAPI staining-based fluorescence microscopy. Format: functional, cell-based. In outline: as §4
The subject of series [11] is Mcl1-1780. As to the kind of experiment: Induction of apoptosis in mouse Mcl1-1780 cells at 0.125 to 0.5 uM after 24 hrs by DAPI staining-based fluorescence microscopy. Format: functional, cell-based. Summed up:
as §3

Series [12] in a line: Antiproliferative activity against human ML2 cells assessed as cell viability after 48 hrs by PrestoBlue staining-based assay. Format: functional. The note with it: ML-2, 48 h. In outline: as §2
The next series deals with HL-60. Put plainly: Antiproliferative activity against human HL60 cells assessed as cell viability after 48 hrs by PrestoBlue staining-based assay. Format: functional. The note with it: HL-60, 48 h. In outline:
as §2

The nature of series [13]: Antiproliferative activity against mouse Mcl1-1780 cells assessed as cell viability after 48 hrs by PrestoBlue staining-based assay. Format: functional. Particulars: Mcl1-1780, 48 h. Summed up: as §2
The target of the next series is T1, CYP1A2 (Homo sapiens, UniProt P05177).
T1 sequence (P05177 whole entry): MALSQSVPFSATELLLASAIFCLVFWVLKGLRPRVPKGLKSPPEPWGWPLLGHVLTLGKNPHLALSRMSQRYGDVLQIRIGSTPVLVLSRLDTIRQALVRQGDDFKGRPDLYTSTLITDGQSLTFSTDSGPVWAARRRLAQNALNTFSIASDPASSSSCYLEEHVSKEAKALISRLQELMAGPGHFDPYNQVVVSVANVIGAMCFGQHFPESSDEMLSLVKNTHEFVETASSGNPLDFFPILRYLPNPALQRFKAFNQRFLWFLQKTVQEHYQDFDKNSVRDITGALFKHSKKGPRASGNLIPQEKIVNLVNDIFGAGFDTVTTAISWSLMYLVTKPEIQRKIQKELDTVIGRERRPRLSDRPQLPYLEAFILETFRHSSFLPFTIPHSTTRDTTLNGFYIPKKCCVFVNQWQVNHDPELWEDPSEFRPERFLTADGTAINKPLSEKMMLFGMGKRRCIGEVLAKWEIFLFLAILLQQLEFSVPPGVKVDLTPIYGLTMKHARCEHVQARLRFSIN
Put plainly: Inhibition of CYP1A2 (unknown origin) at 10 uM. Format: ADME.

For series [14], the system named is Mcl1-1780. As to the kind of experiment: Induction of apoptosis in mouse Mcl1-1780 cells after 16 hrs by Annexin V staining-based flow cytometry. Background: Flow cytometry measures light scatter and fluorescence of single cells or particles in a stream.
The subject of another series is Liver microsomes. Put plainly: Half life in human liver microsomes. Format: ADME, Microsome.
Another series concerns TF-1. As to the kind of experiment: Antiproliferative activity against human TF1 cells assessed as cell viability after 48 hrs by PrestoBlue staining-based assay. Format: functional. The note with it: TF-1, 48 h. In outline:
as §2

The nature of series [15]: Antiproliferative activity against human SU-DHL6 cells assessed as cell viability after 48 hrs by PrestoBlue staining-based assay. Format: functional. The note with it: SU-DHL-6, 48 h. In outline:
as §2

Another series has as its target CYP2C9 (Homo sapiens, UniProt P11712). As to the kind of experiment: Inhibition of CYP2C9 (unknown origin) at 10 uM. Format: ADME.
Series [16] deals with SU-DHL-6. Put plainly: Induction of mitochondrial membrane depolarization in human SU-DHL6 assessed as cytochrome c release at 20 uM after 2 hrs by DAPI staining-based fluorescence microscopy. Format: functional. In outline:
as §4

Series [17] is described as follows: Antiproliferative activity against human NCI-H929 cells assessed as cell viability after 48 hrs by PrestoBlue staining-based assay. The note with it: NCI-H929, 48 h. Format: functional. In outline: as §2
Series [18] concerns Bcl2-1863. As to the kind of experiment: Induction of apoptosis in mouse Bcl2-1863 cells after 16 hrs by Annexin V staining-based flow cytometry.
The subject of series [19] is Mcl1-1780. Put plainly: Induction of apoptosis in mouse Mcl1-1780 cells at 0.625 to 2.5 uM after 24 hrs by DAPI staining-based fluorescence microscopy. Format: functional, cell-based. In outline:
as §3

The target of another series is CYP3A4 (Homo sapiens, UniProt P08684). Put plainly: Inhibition of CYP3A4 (unknown origin) at 10 uM. Format: ADME.
Series [20] can be described thus: Half life of the compound in PBS at 10 uM. Format: physicochemical.

≈ marks a conversion by molar mass, not a printed value. Calls of active or inactive are those of the source.

The term inhibition denotes the relative decrease from the control value, in per cent. The term EC50 denotes the midpoint of the concentration-response curve. Broadly, the solubility is the concentration that dissolves in the medium under given conditions. What is called half-life is the time needed for the level to fall by half in the phase considered. A low value points to rapid decline.

UniProt P11712, sequence (P11712 whole entry): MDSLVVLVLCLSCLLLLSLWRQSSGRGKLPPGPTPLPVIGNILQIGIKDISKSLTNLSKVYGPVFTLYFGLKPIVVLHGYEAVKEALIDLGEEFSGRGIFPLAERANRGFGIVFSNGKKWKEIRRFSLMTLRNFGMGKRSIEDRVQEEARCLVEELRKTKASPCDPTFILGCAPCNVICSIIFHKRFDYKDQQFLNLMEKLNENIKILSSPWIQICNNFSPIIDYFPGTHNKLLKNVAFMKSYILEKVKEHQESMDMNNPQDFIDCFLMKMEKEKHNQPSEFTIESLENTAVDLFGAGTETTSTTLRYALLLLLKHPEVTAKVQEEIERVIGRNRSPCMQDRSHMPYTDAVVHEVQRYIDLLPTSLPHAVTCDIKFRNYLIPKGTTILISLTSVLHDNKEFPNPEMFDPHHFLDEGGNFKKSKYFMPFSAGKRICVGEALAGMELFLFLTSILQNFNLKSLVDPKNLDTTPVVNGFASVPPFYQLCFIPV
UniProt Q07817, sequence (Q07817 whole entry): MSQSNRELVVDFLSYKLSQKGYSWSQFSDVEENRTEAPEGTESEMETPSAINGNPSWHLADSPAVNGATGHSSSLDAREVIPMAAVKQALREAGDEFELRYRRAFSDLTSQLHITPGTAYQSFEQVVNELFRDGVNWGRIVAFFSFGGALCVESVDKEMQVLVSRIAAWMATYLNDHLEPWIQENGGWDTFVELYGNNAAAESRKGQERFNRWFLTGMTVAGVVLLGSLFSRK
UniProt P08684, sequence (P08684 whole entry): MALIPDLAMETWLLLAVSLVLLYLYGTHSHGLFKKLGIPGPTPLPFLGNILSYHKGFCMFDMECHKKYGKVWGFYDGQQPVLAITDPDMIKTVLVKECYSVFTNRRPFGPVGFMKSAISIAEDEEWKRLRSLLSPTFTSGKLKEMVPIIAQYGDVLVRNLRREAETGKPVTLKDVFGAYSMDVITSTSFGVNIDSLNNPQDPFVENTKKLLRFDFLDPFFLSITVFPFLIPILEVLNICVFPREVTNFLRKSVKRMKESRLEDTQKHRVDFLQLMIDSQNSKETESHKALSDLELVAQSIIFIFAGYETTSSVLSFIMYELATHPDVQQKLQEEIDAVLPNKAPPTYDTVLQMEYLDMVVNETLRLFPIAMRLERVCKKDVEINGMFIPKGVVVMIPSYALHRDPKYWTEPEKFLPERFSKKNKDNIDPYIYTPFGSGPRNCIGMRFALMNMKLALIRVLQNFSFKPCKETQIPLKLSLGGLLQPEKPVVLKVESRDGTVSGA
UniProt P10635, sequence (P10635 whole entry): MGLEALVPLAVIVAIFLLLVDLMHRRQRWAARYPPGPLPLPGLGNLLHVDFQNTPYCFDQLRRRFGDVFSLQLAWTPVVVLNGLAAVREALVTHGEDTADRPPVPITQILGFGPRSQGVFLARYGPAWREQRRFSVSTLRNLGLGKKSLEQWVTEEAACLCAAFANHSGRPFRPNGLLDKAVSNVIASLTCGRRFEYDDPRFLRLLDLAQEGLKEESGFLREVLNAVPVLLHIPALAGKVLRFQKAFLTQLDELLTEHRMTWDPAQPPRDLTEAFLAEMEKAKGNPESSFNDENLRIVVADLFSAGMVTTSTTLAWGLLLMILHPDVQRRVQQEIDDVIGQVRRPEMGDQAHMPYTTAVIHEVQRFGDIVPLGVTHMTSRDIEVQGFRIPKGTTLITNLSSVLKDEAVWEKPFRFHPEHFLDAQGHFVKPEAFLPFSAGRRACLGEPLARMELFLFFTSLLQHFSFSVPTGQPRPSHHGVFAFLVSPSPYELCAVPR

For the compound H-PAELEVECATQLRRFGDKLNFRQKLL-OH, the outcome with SU-DHL10 and in the series on SU-DHL-6 [1] was Active.
Consider `CSCC[C@H](NC(=O)[C@H](CCCNC(=N)N)NC(=O)[C@H](CCCNC(=N)N)NC(=O)[C@H](CC(C)C)NC(=O)[C@H](CCC(=O)O)NC(=O)[C@H](CCCNC(=N)N)NC(=O)CNC(=O)[C@H](Cc1ccc(O)cc1)NC(=O)[C@H](CCCNC(=N)N)NC(=O)[C@H](CCC(N)=O)NC(=O)[C@H](C)NC(=O)[C@H](C)NC(=O)[C@H](Cc1c[nH]c2ccccc12)NC(=O)[C@@H](N)CC(C)C)C(=O)N[C@@H](CO)C(=O)N[C@@H](CC(=O)O)C(=O)N[C@@H](CCC(=O)O)C(=O)N[C@@H](Cc1ccccc1)C(=O)N[C@@H](CCC(=O)O)C(=O)NCC(=O)N[C@@H](CO)C(=O)N[C@@H](Cc1ccccc1)C(=O)N[C@@H](CCCCN)C(=O)NCC(=O)N[C@@H](CC(C)C)C(=O)O`, for which the outcome in the series with SU-DHL10 and in the series with SU-DHL-6 [1] was Active.
For the compound `O=C(O)COc1ccccc1C(Nc1ccccn1)c1cc(Cl)c2cccnc2c1O` (stereo not drawn), in series [2], the inhibition result was “inactive”.
Consider `CCN1CCN(C(c2ccc(C(F)(F)F)cc2)c2cc(Cl)c3cccnc3c2O)CC1` (stereo not drawn), for which the EC50 turned out to be 14.1 µM with A549; 25 µM in series [5]; 7.1 µM in the series on A-375; 1.1 µM in series [8]; 14.5 µM with PANC-1; 7 µM with MOLM-13. Besides, the concentration giving a half-maximal response (EC50) with NCI-H187 turned out to be 9.5 µM; in [12] it was 5.2 µM; with HL-60, 6.3 µM; in [13] it was 0.3 µM; in the series on TF-1, 4.8 µM; in [15], 3.3 µM. Besides, the EC50 in [17] was 1.6 µM. Moreover, the result in the series with Bcl2-1863 [3], in the series with Mcl1-1780 [4], with Bcl2-1863 [6], in the series on Bcl2-1863 [10], with Mcl1-1780 [11] and in the series on SU-DHL-6 [16] was Active. Also, the result with Mcl1-1780 [19] was Active. Moreover, the solubility came to 20 µM in series [7] and 2.7 µM (≈ 1.21 µg/mL) in series [9]. Further, the values for the t1/2 in the series on Liver and in the series with Liver microsomes were 0.667 h and 0.917 h, respectively. For the same compound, the inhibition at 10 µM turned out to be 43% against CYP2D6, 29% against CYP1A2, 24% on CYP2C9 and 14% against CYP3A4. The Activity entry in the series with Mcl1-1780 [14] and in the series with Bcl2-1863 [18] was “Dose-dependent effect” throughout. In series [20], this compound gave a half-life at 10 µM of 10 h.
With `CC[C@H](C)[C@H](NC(=O)[C@H](CCC(=O)O)NC(=O)[C@H](CCCNC(=N)N)NC(=O)[C@H](C)NC(=O)[C@H](Cc1c[nH]c2ccccc12)NC(=O)[C@H](CCC(N)=O)NC(=O)[C@H](CCC(=O)O)NC(=O)[C@@H](N)CCC(=O)O)C(=O)NCC(=O)N[C@@H](C)C(=O)N[C@@H](CCC(N)=O)C(=O)N[C@@H](CC(C)C)C(=O)N[C@@H](CCCNC(=N)N)C(=O)N[C@@H](CCCNC(=N)N)C(=O)N[C@@H](CCSC)C(=O)N[C@@H](C)C(=O)N[C@@H](CC(=O)O)C(=O)N[C@@H](CC(=O)O)C(=O)N[C@@H](CC(C)C)C(=O)N[C@@H](CC(N)=O)C(=O)N[C@@H](C)C(=O)N[C@@H](CCC(N)=O)C(=O)N[C@@H](Cc1ccc(O)cc1)C(=O)N[C@@H](CCC(=O)O)C(=O)N[C@@H](CCCNC(=N)N)C(=O)O`, the outcome in the series on SU-DHL10 and in the series with SU-DHL-6 [1] was Active.
